Source: paper PMC2151612 (The Journal of General Physiology, 2007)

B1: His6-tagged full-length SNAP-25b S187A (natural protein)
chain: not shown
B2: His6-tagged full-length SNAP-25b T138E/S187E double mutant (natural protein)
chain: not shown
B3: His6-tagged full-length SNAP-25b T138E (natural protein)
chain: not shown
B4: His6-tagged full-length SNAP-25b S187E (natural protein)
chain: not shown

Molecular target: GST-syntaxin 1A ([…])
Assay: ELISA

Binder	binding result
B1	binds
B2	binds
B3	binds
B4	binds
